Laboratory results: the supplement of paper PMC8728848
This is one part of the list.

Legend:
Assay in all cases: glycan array binding signal (z-score within array); higher = stronger binding
Details in all cases: glycan notation: IUPAC condensed, linker removed
[1] = molecular target: Fuc(a1-2)[Gal(a1-3)]Gal(b1-4)GlcNAc(b1-2)Man(a1-3)[Fuc(a1-2)[Gal(a1-3)]Gal(b1-4)GlcNAc(b1-2)Man(a1-6)]Man(b1-4)GlcNAc(b1-4)GlcNAc
Summary of the method: (§1)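 The binding signal is a Z-score computed within each array and averaged over linkers. Arrays of the same protein sequence at different concentrations or buffers were also averaged together. Data originate from 3228 arrays in the Consortium for Functional Glycomics database, kept only where the protein sequence was available.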

[2] = molecular target: Fuc(a1-2)[Gal(a1-3)]Gal(b1-4)GlcNAc(b1-2)Man(a1-3)[Fuc(a1-2)[Gal(a1-3)]Gal(b1-4)GlcNAc(b1-2)Man(a1-6)]Man(b1-4)GlcNAc(b1-4)[Fuc(a1-6)]GlcNAc
Summary of the method: as §1

[3] = molecular target: Fuc(a1-2)[Gal(a1-3)]Gal(b1-4)GlcNAc(b1-3)GalNAc
Summary of the method: as §1

[4] = molecular target: Fuc(a1-2)[Gal(a1-3)]Gal(b1-4)GlcNAc(b1-3)[Fuc(a1-2)[Gal(a1-3)]Gal(b1-4)GlcNAc(b1-6)]GalNAc
Summary of the method: as §1

[5] = molecular target: Fuc(a1-2)[Gal(a1-3)]Gal(b1-4)GlcNAc(b1-6)GalNAc
Summary of the method: as §1

[6] = molecular target: Fuc(a1-2)[Gal(a1-3)]Gal(b1-4)[Fuc(a1-3)]Glc
Summary of the method: as §1

[7] = molecular target: Fuc(a1-2)[Gal(a1-3)]Gal(b1-4)[Fuc(a1-3)]GlcNAc
Summary of the method: as §1

[8] = molecular target: Fuc(a1-2)[Gal(a1-3)]Gal(b1-4)[Fuc(a1-3)]GlcNAc(b1-3)GalNAc
Summary of the method: as §1

[9] = molecular target: Fuc(a1-2)[Gal(a1-4)]Gal(b1-4)GlcNAc
Summary of the method: as §1

[10] = molecular target: Fuc(a1-2)[GalNAc(a1-3)]Gal
Summary of the method: as §1

[11] = molecular target: Fuc(a1-2)[GalNAc(a1-3)]Gal(b1-3)GalNAc(a1-3)[Fuc(a1-2)]Gal(b1-4)GlcNAc
Summary of the method: as §1

[12] = molecular target: Fuc(a1-2)[GalNAc(a1-3)]Gal(b1-3)GalNAc(b1-3)Gal(a1-4)Gal(b1-4)Glc
Summary of the method: as §1

[13] = molecular target: Fuc(a1-2)[GalNAc(a1-3)]Gal(b1-3)GlcNAc
Summary of the method: as §1

[14] = molecular target: Fuc(a1-2)[GalNAc(a1-3)]Gal(b1-3)GlcNAc(b1-2)Man(a1-3)[Fuc(a1-2)[GalNAc(a1-3)]Gal(b1-3)GlcNAc(b1-2)Man(a1-6)]Man(b1-4)GlcNAc(b1-4)GlcNAc
Summary of the method: as §1

[15] = molecular target: Fuc(a1-2)[GalNAc(a1-3)]Gal(b1-3)GlcNAc(b1-2)Man(a1-3)[Fuc(a1-2)[GalNAc(a1-3)]Gal(b1-3)GlcNAc(b1-2)Man(a1-6)]Man(b1-4)GlcNAc(b1-4)[Fuc(a1-6)]GlcNAc
Summary of the method: as §1

[16] = molecular target: Fuc(a1-2)[GalNAc(a1-3)]Gal(b1-3)GlcNAc(b1-3)GalNAc
Summary of the method: as §1

[17] = molecular target: Fuc(a1-2)[GalNAc(a1-3)]Gal(b1-3)GlcNAc(b1-6)GalNAc
Summary of the method: as §1

[18] = molecular target: Fuc(a1-2)[GalNAc(a1-3)]Gal(b1-4)Glc
Summary of the method: as §1

[19] = molecular target: Fuc(a1-2)[GalNAc(a1-3)]Gal(b1-4)GlcNAc
Summary of the method: as §1

[20] = molecular target: Fuc(a1-2)[GalNAc(a1-3)]Gal(b1-4)GlcNAc(b1-2)Man
Summary of the method: as §1

[21] = molecular target: Fuc(a1-2)[GalNAc(a1-3)]Gal(b1-4)GlcNAc(b1-2)Man(a1-3)[Fuc(a1-2)[GalNAc(a1-3)]Gal(b1-4)GlcNAc(b1-2)Man(a1-6)]Man(b1-4)GlcNAc(b1-4)GlcNAc
Summary of the method: as §1

[22] = molecular target: Fuc(a1-2)[GalNAc(a1-3)]Gal(b1-4)GlcNAc(b1-2)Man(a1-3)[Fuc(a1-2)[GalNAc(a1-3)]Gal(b1-4)GlcNAc(b1-2)Man(a1-6)]Man(b1-4)GlcNAc(b1-4)[Fuc(a1-6)]GlcNAc
Summary of the method: as §1

[23] = molecular target: Fuc(a1-2)[GalNAc(a1-3)]Gal(b1-4)GlcNAc(b1-3)Gal(b1-4)GlcNAc
Summary of the method: as §1

[24] = molecular target: Fuc(a1-2)[GalNAc(a1-3)]Gal(b1-4)GlcNAc(b1-3)Gal(b1-4)GlcNAc(b1-3)Gal(b1-4)GlcNAc
Summary of the method: as §1

[25] = molecular target: Fuc(a1-2)[GalNAc(a1-3)]Gal(b1-4)GlcNAc(b1-3)GalNAc
Summary of the method: as §1

[26] = molecular target: Fuc(a1-2)[GalNAc(a1-3)]Gal(b1-4)GlcNAc(b1-3)[Fuc(a1-2)[GalNAc(a1-3)]Gal(b1-4)GlcNAc(b1-6)]GalNAc
Summary of the method: as §1

[27] = molecular target: Fuc(a1-2)[GalNAc(a1-3)]Gal(b1-4)GlcNAc(b1-6)GalNAc
Summary of the method: as §1

[28] = molecular target: Fuc(a1-2)[GalNAc(a1-3)]Gal(b1-4)[Fuc(a1-3)]GlcNAc
Summary of the method: as §1

[29] = molecular target: Fuc(a1-2)[GalNAc(a1-3)]Gal(b1-4)[Fuc(a1-3)]GlcNAc(b1-3)GalNAc
Summary of the method: as §1

[30] = molecular target: Fuc(a1-2)[GalNAc(a1-4)]Gal(b1-4)GlcNAc
Summary of the method: as §1

[31] = molecular target: Fuc(a1-2)[GalNAc(b1-3)]Gal
Summary of the method: as §1

Fuc(a1-3)GlcNAc = molecular target: Fuc(a1-3)GlcNAc
Summary of the method: as §1

[32] = molecular target: Fuc(a1-3)[Gal(b1-4)]Glc6S
Summary of the method: as §1

[33] = molecular target: Fuc(a1-3)[Gal(b1-4)]GlcNAc
Summary of the method: as §1

[34] = molecular target: Fuc(a1-3)[Gal(b1-4)]GlcNAc(b1-2)Man
Summary of the method: as §1

[35] = molecular target: Fuc(a1-3)[Gal(b1-4)]GlcNAc(b1-2)Man(a1-3)[Fuc(a1-3)[Gal(b1-4)]GlcNAc(b1-2)Man(a1-6)]Man(b1-4)GlcNAc(b1-4)GlcNAc
Summary of the method: as §1

[36] = molecular target: Fuc(a1-3)[Gal(b1-4)]GlcNAc(b1-2)Man(a1-3)[Fuc(a1-3)[Gal(b1-4)]GlcNAc(b1-2)Man(a1-6)]Man(b1-4)GlcNAc(b1-4)[Fuc(a1-6)]GlcNAc
Summary of the method: as §1

[37] = molecular target: Fuc(a1-3)[Gal(b1-4)]GlcNAc(b1-3)Gal(b1-3)[Fuc(a1-4)]GlcNAc
Summary of the method: as §1

[38] = molecular target: Fuc(a1-3)[Gal(b1-4)]GlcNAc(b1-3)Gal(b1-4)[Fuc(a1-3)]GlcNAc
Summary of the method: as §1

[39] = molecular target: Fuc(a1-3)[Gal(b1-4)]GlcNAc(b1-3)Gal(b1-4)[Fuc(a1-3)]GlcNAc(b1-3)Gal(b1-4)[Fuc(a1-3)]GlcNAc
Summary of the method: as §1

[40] = molecular target: Fuc(a1-3)[Gal(b1-4)]GlcNAc(b1-3)GalNAc
Summary of the method: as §1

[41] = molecular target: Fuc(a1-3)[Gal(b1-4)]GlcNAc(b1-6)GalNAc
Summary of the method: as §1

[42] = molecular target: Fuc(a1-3)[Gal(b1-4)]GlcNAc(b1-6)[Gal(b1-3)GlcNAc(b1-3)]Gal(b1-4)Glc
Summary of the method: as §1

[43] = molecular target: Fuc(a1-3)[Gal(b1-4)]GlcNAc6S
Summary of the method: as §1

[44] = molecular target: Fuc(a1-3)[Gal3S(b1-4)]Glc
Summary of the method: as §1

B1: LICBM33A (Lactococcus lactis), Q9CE94 (protein)
chain: MKKLLTGLLVAAGLLSVSLLIKTDTVSAHGYVQSPPARGYQGQLDSQSLGWTAAFNIYGNVISNPQSLEAPKGFPECGPADGRIASANGGLGQIGDFVLDNQTSSRWKKTSISTGSNIFTWKYTAPHKTTKWHYYMTKTGWDQNAPLKHSELELIGTINHDGSPATNNLSHTINIPTDRSGYHIVLAVWDVADTSNAFYNVIDINVNNKNASSQVFGPFL
- glycan array binding signal (z-score) [1]: -0.401
- glycan array binding signal (z-score) [2]: 0.05
- glycan array binding signal (z-score) [3]: -0.57
- glycan array binding signal (z-score) [4]: -0.026
- glycan array binding signal (z-score) [5]: 0.076
- glycan array binding signal (z-score) [6]: -0.107
- glycan array binding signal (z-score) [7]: -0.909
- glycan array binding signal (z-score) [8]: -1.52
- glycan array binding signal (z-score) [9]: -0.212
- glycan array binding signal (z-score) [10]: -0.183
- glycan array binding signal (z-score) [11]: -0.585
- glycan array binding signal (z-score) [12]: -0.512
- glycan array binding signal (z-score) [13]: -0.295
- glycan array binding signal (z-score) [14]: -0.264
- glycan array binding signal (z-score) [15]: -0.211
- glycan array binding signal (z-score) [16]: -0.433
- glycan array binding signal (z-score) [17]: -0.701
- glycan array binding signal (z-score) [18]: -0.171
- glycan array binding signal (z-score) [19]: -0.259
- glycan array binding signal (z-score) [20]: -0.298
- glycan array binding signal (z-score) [21]: -0.686
- glycan array binding signal (z-score) [22]: -0.265
- glycan array binding signal (z-score) [23]: 0.34
- glycan array binding signal (z-score) [24]: -0.394
- glycan array binding signal (z-score) [25]: -0.617
- glycan array binding signal (z-score) [26]: 0.513
- glycan array binding signal (z-score) [27]: -0.17
- glycan array binding signal (z-score) [28]: 0.106
- glycan array binding signal (z-score) [29]: 0.403
- glycan array binding signal (z-score) [30]: -0.035
- glycan array binding signal (z-score) [31]: -0.401
- glycan array binding signal (z-score) (Fuc(a1-3)GlcNAc): -0.493
- glycan array binding signal (z-score) [32]: 1.01
- glycan array binding signal (z-score) [33]: -0.685
- glycan array binding signal (z-score) [34]: -0.118
- glycan array binding signal (z-score) [35]: 1.65
- glycan array binding signal (z-score) [36]: -0.76
- glycan array binding signal (z-score) [37]: -0.369
- glycan array binding signal (z-score) [38]: -1.02
- glycan array binding signal (z-score) [39]: -0.442
- glycan array binding signal (z-score) [40]: 0.32
- glycan array binding signal (z-score) [41]: 1.73
- glycan array binding signal (z-score) [42]: -0.329
- glycan array binding signal (z-score) [43]: -0.073
- glycan array binding signal (z-score) [44]: -0.544
